Measurements: paper PMC4336329 (PLoS ONE, 2015)
Hit rate of the full screen: of about 310,000 compounds, about 2,200 (0.71%) showed an effect of 50% or more. Effects have a minus sign here. This is one part of the list.

These compounds were tested against human ether-à-go-go-related gene (hERG) potassium channel (human, UniProt Q12809) (assay: primary screen, population patch clamp on CHO cells stably expressing hERG).
Chain of human ether-à-go-go-related gene (hERG) potassium channel (Q12809 whole entry, looked up): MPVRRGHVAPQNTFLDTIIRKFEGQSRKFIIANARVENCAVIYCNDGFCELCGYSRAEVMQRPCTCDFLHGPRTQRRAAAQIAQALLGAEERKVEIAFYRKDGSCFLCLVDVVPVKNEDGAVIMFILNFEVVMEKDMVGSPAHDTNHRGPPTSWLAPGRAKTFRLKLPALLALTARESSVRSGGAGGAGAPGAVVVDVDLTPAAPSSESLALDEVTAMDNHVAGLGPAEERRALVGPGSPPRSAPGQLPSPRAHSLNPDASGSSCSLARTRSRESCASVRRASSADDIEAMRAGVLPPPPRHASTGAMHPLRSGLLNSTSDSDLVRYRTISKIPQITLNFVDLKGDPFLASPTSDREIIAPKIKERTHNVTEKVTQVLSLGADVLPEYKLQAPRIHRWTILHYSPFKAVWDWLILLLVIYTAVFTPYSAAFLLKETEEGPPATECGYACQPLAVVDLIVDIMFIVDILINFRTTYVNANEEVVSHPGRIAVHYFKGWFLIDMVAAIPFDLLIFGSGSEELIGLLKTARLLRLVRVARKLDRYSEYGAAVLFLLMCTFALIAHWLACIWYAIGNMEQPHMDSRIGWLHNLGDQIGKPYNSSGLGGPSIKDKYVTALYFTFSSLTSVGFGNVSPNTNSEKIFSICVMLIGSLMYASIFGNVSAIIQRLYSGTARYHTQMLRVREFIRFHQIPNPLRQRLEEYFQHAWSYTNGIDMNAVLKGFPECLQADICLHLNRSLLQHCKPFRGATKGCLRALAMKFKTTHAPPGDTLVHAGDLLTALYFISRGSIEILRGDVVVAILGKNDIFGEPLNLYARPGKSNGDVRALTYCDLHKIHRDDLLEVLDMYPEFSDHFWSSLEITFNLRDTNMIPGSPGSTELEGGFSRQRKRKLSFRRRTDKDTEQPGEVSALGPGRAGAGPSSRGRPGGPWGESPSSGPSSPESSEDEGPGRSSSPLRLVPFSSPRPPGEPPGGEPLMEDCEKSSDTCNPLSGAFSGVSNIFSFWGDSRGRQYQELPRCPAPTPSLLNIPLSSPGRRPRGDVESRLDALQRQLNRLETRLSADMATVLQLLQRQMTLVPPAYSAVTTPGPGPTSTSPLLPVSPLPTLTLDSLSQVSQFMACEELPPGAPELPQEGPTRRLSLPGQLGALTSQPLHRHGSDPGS

Row | SMILES | hERG current change (%, negative = inhibition) at 1uM
1 | CCN(CC)S(=O)(=O)c1cccc(-c2nnc(SCC(=O)NC)n2CCc2ccccc2)c1 | -4.52%
2 | O=C(c1c(F)cccc1F)N(C1CCCCC1)C1CCCCC1 | 3.94%
3 | CS(=O)(=O)N1CCCC(C(=O)NCCc2ccc(Cl)cc2)C1 (stereo not drawn) | -13.3%
4 | COc1ccc(OCc2nnc3n2N=C(c2ccc(OC)cc2)CS3)cc1 | 4.89%
5 | C=CCOc1ccc(/C=N/Nc2ccccn2)cc1OC | 13%
6 | NC(=O)COC(=O)CC12CC3CC(CC(Br)(C3)C1)C2 | 14.2%
7 | CC(C)(Oc1ccc(Br)cc1Cl)C(=O)Nc1ccon1 | -8.06%
8 | CCCCNS(=O)(=O)c1ccc2c(c1)oc(=O)n2CC(=O)OCC | 17%
9 | COc1cccc2cc(CC(=O)c3cc(C)ccc3C)c(=O)oc12 | 14.5%
10 | CC(C)N(C(=O)COC(=O)[C@H](C)NC(=O)c1ccco1)c1ccccc1 | 17.1%
11 | Cc1cc(-c2nn(-c3ccccc3F)cc2CN2CCCC(C(N)=O)C2)c(C)s1 (stereo not drawn) | 0.456%
12 | CC/C(Cc1ccccc1)=N\NC(=O)c1cc([N+](=O)[O-])cc([N+](=O)[O-])c1 | -10.9%
13 | CCCN(CCC)CC(=O)NCC1(c2ccccc2)CCOCC1.Cl | 2.31%
14 | Cc1cccc(Nc2nc(NCc3ccco3)nc(N)c2[N+](=O)[O-])c1 | 15.3%
15 | COC(=O)Cn1c(CN2CCc3ccccc3C2)nc2c1c(=O)n(C)c(=O)n2C | -3.51%
16 | CC(C)(CNC(=O)c1ccc(S(=O)(=O)N2CCCC2)cc1)N1CCOCC1 | 9.89%
17 | CCOC(=O)c1c(NC(C)=O)sc2c1C1CCN2CC1.Cl | 15.1%
18 | COc1ccc(C2=NN(C(=O)c3cccs3)C(c3ccccc3O)C2)cc1 (stereo not drawn) | 3.31%
19 | COc1cc2c(cc1NC(=O)CSc1nc3ccc(C)cc3[nH]1)oc1ccccc12 | 2.54%
20 | O=c1nc(SCc2c(F)cccc2Cl)nc(-c2ccc(Cl)cc2)[nH]1 | 14%
21 | CCOC(=O)CN1C(=O)S/C(=C/c2cc(C)n(C)c2C)C1=O | 9.27%
22 | CC(C)CCNC(=O)Cc1ccc(Nc2nc(=S)[nH]c3ccccc23)cc1 | 8.18%
23 | Cc1c(NC(=O)c2cc(-c3cccs3)nc3ccccc23)c(=O)n(-c2ccccc2)n1C | -10.7%

Row | SMILES | hERG current change (%, negative = inhibition) at 1uM
24 | O=C(O)C(=O)O.c1ccc(CNCCc2ccc3c(c2)OCO3)nc1 | -5.34%
25 | CCOC(=O)c1cc2cc([N+](=O)[O-])ccc2oc1=O | -0.472%
26 | Cc1nn(C(=O)N2CCOCC2)c(C)c1C | 18.2%
27 | COCCn1c(SCC(=O)c2[nH]c(C)c(C(C)=O)c2C)nc2ccccc2c1=O | 3.05%
28 | Nc1c(Br)cc2oc(-c3ccccc3)nc2c1Br | 10.8%
29 | COc1ccc(-c2cc(N)n(S(=O)(=O)c3ccc(C)cc3)n2)c(OC)c1 | 11.1%
30 | Cc1nnc(-n2cnc3ccccc32)c2ccccc12 | 4%
31 | Cc1ccccc1-c1nnc(NC(=O)c2ccc(N3C(=O)CCC3=O)cc2)s1 | 18.5%
32 | Cc1oc(CC(C)C)c(CN)c1C(=O)O.Cl | -3.98%
33 | CCc1ccc(N2CN(Cc3cccnc3)CNC2=S)cc1 | 3.68%
34 | O=C(COc1ccc2oc(-c3ccccc3)cc(=O)c2c1)Nc1ccccc1 | 5%
35 | O=C(CN1CCOCC1)Nc1cc(Cl)ccc1Cl | -24.5%
36 | CCOc1cc(/C=N/NC(=O)Cn2nc([N+](=O)[O-])cc2C)cc(Br)c1OCc1ccccc1F | 10.7%
37 | Cc1cc(C)cc(OCCNC(=O)C2CCN(S(=O)(=O)c3ccccc3)CC2)c1 | -0.855%
38 | CC1Cc2ccccc2N1C(=O)c1ccc(Br)o1 (stereo not drawn) | 7.47%
39 | COc1cc(CN=C(C)c2c(O)n(C3CCCCC3)c(=O)[nH]c2=O)cc(OC)c1 | 18.2%
40 | CCOC(=O)CCCCC(=O)c1[nH]c(=O)[nH]c1CN1CCOCC1 | 15.4%
41 | O=C(COC(=O)c1cccnc1Cl)NCCc1ccccc1 | 13.7%
42 | CC1(C)CC(=O)c2sc(N)nc2C1 | 1.79%
43 | CNc1nc(-c2ccccc2)cc(-c2ccccc2)n1 | 13.7%
44 | O=C1NN(c2cccc(Br)c2)C(=O)/C1=C/c1cccs1 | 9.56%
45 | O=C(O)CN1C(=O)NC2NC(=O)NC21 (stereo not drawn) | 11.8%
